# From PubChem BioAssay AID1508624 (National Center for Advancing Translational Sciences (NCATS), 2021)
# Hit rate of the full screen: of about 48,000 compounds, about 120 (0.25%) were called active. Not shown: some 4% with an inconclusive outcome. The call rests on the fitted dose curve; in most records, active means well fitted activation curve with a large enough effect; inconclusive means small, poorly fitted or top-dose-only effect, or another doubt; inactive means no such curve, though single readings can be large or run the other way. This is one part of the list.
# Assay: Primary qHTS for Identification of Small Molecule Activators of Huntingtin-Antisense Promoter Activity; further: nearly all actives have a fitted effect of over 55% in size
# Conditions: HEK293 HTT-AS promoter firefly luciferase reporter, 24 h; series mostly up to 57.5 µM; activity change, positive = activation: at the top concentration
# Method in brief: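 Firefly luciferase signal from promoter-reporter HEK293 cells was scaled between vehicle (0%) and zero RLU (-100%). Compounds were tested at final concentrations of up to 57.5 uM over 24 h at 37 degrees C. PTC124 at 50 uM final served as control inhibitor.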
row,SMILES,"activity change, positive = activation"
1,COc1ccc2c(c1)-c1nc(NC(=O)c3cc(OC)c(OC)c(OC)c3)sc1CC2,inactive: -44%
2,O=c1[nH]c(C2CCCN(S(=O)(=O)c3ccccc3)C2)nc2c1nnn2Cc1ccc(OC(F)(F)F)cc1 (centres undefined),inactive: 15.6%
3,O=C(C1CCC(Cn2c(=O)c3sccc3n(Cc3ccc(F)cc3)c2=O)CC1)N1CCOCC1 (centres undefined),inactive: -20%
4,CN1C(=O)c2[nH]nc(-c3ccc(F)cc3)c2C1c1cccc(O)c1 (centres undefined),inactive: -20.2%
5,Cn1cc(-c2cc3n(n2)CCC(=O)N3CCCC(=O)NCc2ccccc2Cl)c2ccccc21,inactive: -12.7%
6,Cc1cc(C)cc(Nc2nc3cc(Cl)c(Cl)cc3nc2-n2nc(C)cc2C)c1,inactive: -16.5%
7,CC(C)CCn1c(SCc2cccc(F)c2)nc2ccsc2c1=O,inactive: -18.9%
8,CCc1ccc2oc(C(=O)NCc3ccccc3)cc(=O)c2c1,"inactive: 28% [at 11.5 µM, percent change from vehicle, -100% = no light]"
9,C#CC(C)(CC)NC(=O)Cn1nnc(-c2ccc(OCc3c(F)cccc3Cl)cc2)n1 (centres undefined),inactive: -29.4%
10,COc1cc(NC(=O)CN(c2cc(C)cc(C)c2)S(=O)(=O)c2c(C)[nH]c(=O)[nH]c2=O)cc(OC)c1,inactive: -16%
11,Cc1cn2c(=O)cc(COc3ccc(NC(=O)COc4ccccc4)cc3)nc2s1,inactive: -0.191%
12,Cc1ccc(-n2c(=O)c3ccc(C(=O)NCc4ccccc4Cl)cc3n(CC(=O)Nc3ccc(C)cc3C)c2=O)cc1,inactive: -10.8%
13,Cc1cc(C)cc(C(=O)n2nc(C)c(S(=O)(=O)N3CCOCC3)c2C)c1,inactive: -8.22%
14,O=C(CSc1ncc2c(n1)-c1ccccc1N(Cc1ccc(F)cc1)S2(=O)=O)NCCc1ccccc1,inactive: 7.59%
15,CCOC(=O)c1c(NC(=O)c2ccc(F)cc2)sc2c1CCC(CC)C2 (centres undefined),"inactive: -12.9% [at 11.5 µM, percent change from vehicle, -100% = no light]"
16,Cc1ccc(Nc2cc(C)nc3nncn23)c(C)c1,inactive: -6.05%
17,CCOC(=O)c1cccc(NC(=O)[C@H](CSCc2ccccc2)N2Cc3ccccc3C2=O)c1,inactive: -20.6%
18,COc1ccc(-n2c(SCc3ccccc3)nc3c([nH]c4ccccc43)c2=O)cc1,inactive: -15.7%
19,COc1cccc(CNC(=O)Cn2nc(N3CCN(c4ccccc4OC)CC3)ccc2=O)c1,inactive: -9.51%
20,COc1ccc(C)cc1NC(=O)CN1C(=O)COc2ccc(S(=O)(=O)N3CCC(C)CC3)cc21,inactive: -20.3%
21,Cc1c(Cl)cccc1NC(=O)C(C)n1c(=O)cc(C)c2c(C)nn(-c3ccccc3)c21 (centres undefined),inactive: -2.67%
22,CCOc1ccc(-n2c(=O)c3c(C)c(C)sc3n(Cc3ccccc3C)c2=O)cc1,inactive: -2.44%
23,CCCCOc1ccc(C2C(=O)N(C3CCCCC3)CC(=O)N2CCCC)cc1 (centres undefined),inactive: -6.25%
24,Cc1cc(C)cc(C(=O)N2CC(=O)Nc3ccc(Br)cc3C2c2ccccc2)c1 (centres undefined),inactive: -48.6%

row,SMILES,"activity change, positive = activation"
1,Cc1ccc(NC(=O)Cn2c(-c3nonc3N)nc3ccccc32)c(Br)c1,inactive: -19.4%
2,COc1cccc(CNC(=O)CCc2c(C)c3ccc(O)c(C)c3oc2=O)c1,inactive: -5.72%
3,CCOC(=O)c1noc2ncn(CC(=O)Nc3ccccc3OC)c(=O)c12,inactive: -8.95%
4,Cc1ccc(-n2ncc(C(=O)NCCCN3CCc4ccccc4C3)c2C2CCN(C(=O)OC(C)(C)C)CC2)c(C)c1,inactive: -21.5%
5,CCCCN(CC)CCCNC(=O)c1ccc2c(c1)NC(=O)CN2C,inactive: -6.76%
6,COc1ccc(Cl)cc1NC(=O)C(C)n1nnc2sc3c(c2c1=O)CCCC3 (centres undefined),inactive: -13.1%
7,COc1ccccc1C(=O)Nc1cc(-c2cccc(Br)c2)nn1-c1ccccc1,inactive: -5.83%
8,Cc1cc(C)cc(N2C(=O)CC(c3ccc(C(F)(F)F)cc3)C3=C2COC3=O)c1 (centres undefined),inactive: -13.6%
9,CCN1CCN(c2csc3ccc(Cl)cc3c2=O)CC1,inactive: 25.6%
10,Cc1cccc(NC(=O)CSc2nc(-c3cccs3)cc(C(F)(F)F)c2C#N)c1,inactive: -13.3%
11,CCCCn1c(Oc2cccc(C(=O)OC)c2)nc2c1c(=O)n(C)c(=O)n2C,inactive: -8.07%
12,COc1ccc(Cn2c(SCC(=O)NCc3ccccc3)nc3ccccc32)cc1,inactive: -27.2%
13,Cc1ccc(C(=O)NCC(=O)OCc2cc(=O)n3nc(C4CCCCC4)sc3n2)cc1,inactive: -5.19%
14,CCOc1ccc(NC(=O)Cn2nnc(C(=O)OC)c2C(=O)OC)cc1,inactive: -18.7%
15,COc1ccc(C(=O)NC2(C(F)(F)F)C(=O)NC(C)=C2C#N)cc1 (centres undefined),inactive: -12.8%
16,Cc1ccc2c(c1)C(c1ccc(F)cc1)N(C(=O)C(C)C)CC(=O)N2 (centres undefined),inactive: -10.2%
17,CCc1cccc(NC(=O)Cn2nc(CC)n3c(cc4cc(C)ccc43)c2=O)c1,inactive: 13.2%
18,O=c1oc2ccc3ccccc3c2cc1-c1nnc(Nc2ccccc2)s1,inactive: -7%
19,CCNC(=O)CCSc1nnc(-c2ccc(O)cc2)o1,inactive: 15.6%
20,CCC(Oc1ccc(F)cc1)C(=O)Nc1cc(-c2ccc(C)cc2)no1 (centres undefined),inactive: 0%
21,COc1cccc(CNC(=O)Nc2cc(C(=O)NCc3cccc(F)c3)ccc2N2CCCC2)c1,inactive: -25.4%
22,O=C1NC(=O)C(=Cc2ccc3c(c2)OC(F)(F)O3)S1,inactive: -19.4%
23,CCN(CC)c1ccc(NC(=O)c2cc(CN3CCCC3)on2)c(C)c1,inactive: -9.57%
24,CCOc1cc(CNC(=O)c2ccc(NC(=O)c3nsc4ccccc34)cc2)ccc1OC,inactive: -46.5%

row,SMILES,"activity change, positive = activation"
1,Cn1c(=O)c2ccccc2n2c(CCC(=O)N3CCN(c4cccc(Cl)c4)CC3)nnc12,inactive: 1.8%
2,CCN(CC)c1ccc(NC(=O)Cn2c(C)c3cnn(-c4ccccc4)c(=O)c3c2C)c(C)c1,inactive: -12.4%
3,Cc1cc(Cl)ccc1NC(=O)CCS(=O)(=O)c1cc2c(cc1C)NC(=O)CO2,inactive: -16%
4,COC(=O)c1c(-c2cccs2)csc1NC(=O)c1cc(OC)cc(OC)c1,inactive: 29.3%
5,Cc1ccc(CNC(=O)C(CC(C)C)N2Cc3ccccc3C2=O)cc1 (centres undefined),inactive: -11.7%
6,O=C(NCCSc1c(-c2ccc(Br)cc2)[nH]c2ccccc12)c1ccc(S(=O)(=O)N2CCOCC2)cc1,inactive: -23.4%
7,Clc1cccc(-n2ncc3c(NCCCc4ccccc4)ncnc32)c1,inactive: -8.33%
8,Cc1cc(C)cc(NC(=O)C(Cc2ccccc2)N2Cc3ccccc3C2=O)c1 (centres undefined),inactive: -14%
9,COc1cc(C(C)=O)ccc1OCCCN1CCC(c2noc3cc(F)ccc23)CC1,inactive
10,Cc1ccc(CCNC(=O)c2sc3ncccc3c2-n2cccc2)cc1,inactive: 6.02%
11,COc1cc(NC(=O)c2nc3cc(C)c(C)cc3n(C)c2=O)cc(OC)c1OC,inactive: 12.2%
12,COc1cccc(NC(=O)CSc2nc(O)c(C/C=C/c3ccccc3)c(=O)[nH]2)c1,inactive: -14%
13,COc1ccc(N2CCN(S(=O)(=O)c3ccc(-c4cc(C(F)(F)F)on4)s3)CC2)cc1,inactive: -15.7%
14,CCC(=O)Nc1cc(C(=O)NCc2ccc(C)cc2)ccc1S(=O)(=O)c1ccc(C)cc1,inactive: -18.2%
15,CCc1cccc(C)c1Nc1c(-c2ccc(N(C)C)cc2)nc2ncccn12,inactive: -31%
16,Cc1ccc(C)c(CN2C(=O)c3ccccc3Sc3ccc(C(=O)NCc4ccco4)cc32)c1,inactive: -36.5%
17,Cc1cccc(OCc2ccc(-c3nc(C#N)c(N4CCN(c5ccccc5)CC4)o3)o2)c1,inactive: -16.4%
18,Cc1cc(C)c2oc(C(=O)Nc3c(C(=O)c4ccc(F)cc4)oc4ccccc34)cc(=O)c2c1,inactive: 3.39%
19,CC1CCC(NC(=O)C2(C)Cc3ccccc3C(=O)N2Cc2ccccc2Cl)CC1 (centres undefined),inactive: -4.6%
20,N#Cc1ccccc1NC(=O)C(=O)NCC(c1cccnc1)N1CCc2ccccc2C1 (centres undefined),inactive: -5.82%
21,CN1[C@@H]2CC[C@H]1CC(OC(=O)c1c[nH]c3ccccc13)C2 (some centres undefined),inactive: -3.31%
22,COc1cccc(CNc2ccc3c(c2)ncn3C)c1OC,inactive: 0.849%
23,Cc1cc(SCC(=O)NCc2ccccc2)nc(=O)[nH]1,inactive: -16.1%
24,CCC(=O)N1CCc2cc(S(=O)(=O)NCCC(=O)Nc3cccc(C)c3C)ccc21,inactive: -0.53%

row,SMILES,"activity change, positive = activation"
1,CCOc1ccccc1NC(=O)C1CCCN(S(=O)(=O)c2ccc3c(c2)CCCN3C(C)=O)C1 (centres undefined),inactive: -27.3%
2,CCc1ccc(S(=O)(=O)c2nnn3c2nc(Nc2cccc(C)c2C)c2sccc23)cc1,inactive: -42.8%
3,O=C(NCc1ccccc1Br)c1ccc(-n2cnc3cccnc32)cc1,inactive: -4%
4,COc1cc(-c2nnc(SCC(=O)N3CCCc4ccccc43)o2)cc(OC)c1OC,inactive: -4.02%
5,COc1ccc(N(CC(=O)Nc2ccc(Cl)cc2C)S(=O)(=O)c2ccccc2)c(OC)c1,inactive: -12.2%
6,Cc1ccccc1C(=O)Nc1nnc(S(=O)(=O)N2CCCc3ccccc32)s1,inactive: -10.7%
7,CCN(C(=O)Cn1nc(Cc2cccnc2)c2ccccc2c1=O)c1cc(C)ccc1C,inactive: -33.3%
8,COc1ccc(C(=O)N2CCC(C(=O)Nc3ccc(OC)cc3OC)CC2)cc1,inactive: 3.56%
9,Cc1ccc(-n2c(=O)c3sccc3n(Cc3cc(=O)n4ccccc4n3)c2=O)cc1,inactive: -5.98%
10,O=C1C(c2ccc(C(F)(F)F)cc2)=C(Nc2ccc(Cl)cc2)c2ccccc21,inactive: -27.2%
11,Cc1onc(-c2ccccc2)c1C(=O)N[C@@H]1C(=O)N2[C@@H](C(=O)O)C(C)(C)S[C@@H]12,inactive: -3.53%
12,Cc1cccc(-c2cc(NC(=O)COc3ccccc3F)n(-c3ccccc3)n2)c1,inactive: 21.1%
13,Cc1nnsc1C(=O)Oc1ccccc1Cl,inactive: -2.56%
14,CSc1ccccc1NC(=O)CCS(=O)(=O)c1nc(-c2cccs2)cc(C(F)(F)F)n1,inactive: -5.69%
15,Cc1ccc(-c2cn3c4c(=O)n(C)c(=O)n(C)c4nc3n2-c2cccc(Cl)c2)cc1,inactive: -25.2%
16,CCn1c(C(=O)Nc2cc(C)cc(C)c2)cc2sc(Cl)cc21,inactive: -1.58%
17,COc1ccc(C(=O)N=c2sc3cc(Cl)ccc3n2C)cc1,inactive: -2.94%
18,Cc1ccc(NC(=O)CSc2nnc(-c3cc4occc4n3C)n2-c2ccccc2C)cc1F,inactive: -24.5%
19,CCN(CC)CCOC(=O)c1ccc(NC(=O)CCn2c(=O)oc3ccccc32)cc1,inactive: -15.7%
20,COCCNC(=O)Cn1c(=O)n(-c2ccc(C)c(C)c2)c(=O)c2c3c(sc21)CCCCC3,inactive: -15%
21,CCOC(=O)c1cccc(NC(=O)C2CCN(c3nnc(C)c4c(C)n(-c5ccccc5)nc34)CC2)c1,inactive: -4.99%
22,COc1ccc(NC(=O)CN2CCN(S(=O)(=O)c3ccc(Br)cc3)CC2)cc1,inactive: -18.4%
